The text below walks through data of the RNAGym collection of RNA variant scans (doi:10.7554/elife.90254).

First the molecules themselves.
B1: LINE1-mini (parent)
chain: GGCAGAGCUCAACACAGCGUGGCAAAGUGGCUGUGGCUAGACUGCC

The source gives no read counts; variants with many changes may rest on few reads.

The data set covers variants of B1. The data set is described as follows: self-cleavage, relative activity (ratio to wild type); higher = more cleavage; in vitro, sequencing; the parent is a self-cleaving ribozyme.
As for GGUAGAGCUCGACAAAGCGUGGCAAAGUGGCUGUGGCUAGACUGCC [C3U A11G C15A], the self-cleavage turned out to be 0.05. As for GGCAGAGCUCAACACAGUGUGGCAAAGUGGCUGUGGCUGGCCUGAC [C18U A39G A41C C45A], the figure is 0.01.

For GGCAGAGCUCACCACAGCGUGGAAACGUGCCUGUGGCUAGAUUGCC [A12C C23A A26C G30C C42U], the self-cleavage was found to be 0.01. For the variant GGCAGAGCUAAACACAGCGUGGCAAAUUGGCUGUGGUUAGACUGCC [C10A G27U C37U], the self-cleavage was 0.02. To GGCAGAGUUCAACACAGCGUGACAAAGUGGCUGUCGCUAGACAGCC [C8U G22A G35C U43A] belongs 0.04; to CGCAGAGCUCAACACAGCGUGGCAAAGUGGCUGUGGCUAGACGGUC [G1C U43G C45U], 0.01; to GCCAGUGCUCGACACAGCGUGGCAAAGUGGGUGUGGCUAGACUGCC [G2C A6U A11G C31G], 0.01. As for GGCAGAGCUAAACACAGCGCGGCCAUGUGGCUGUGGCUAGACUGCC [C10A U20C A24C A26U], the self-cleavage is 0.03.

On to GGCAGAGCUCAACACAGCGUGUCAAAGUGACUGUGGUUAGACUGCC [G22U G30A C37U], for which the self-cleavage came out at 0.04.

Turning to GGCAGAGCUUAACACAGCGUGGCAAAGUGGCUGAGGCUAGAUUGCC [C10U U34A C42U], the self-cleavage stood at 0.03. To AGUAGAGCUCCACACAGCGUGGCAAAGUGGCUAUGGCUAGACUGCC [G1A C3U A11C G33A] belongs 0.07. As for GGCAGAGCUCAACACAGUGUGGCAAAGUGGCUGUGGCUAGACGCCC [C18U U43G G44C], the figure is 0.03. Consider AGCAGAGCUCAACACAGCGUGGCAAAGUGGCUCUGCCUAAACUGCC [G1A G33C G36C G40A], for which the self-cleavage came to 0.08.

On to GGCAGAGCUCAACACAGCGAGGCAAAUAGGCUGUGGAUAGACUGGC [U20A G27U U28A C37A C45G], for which the self-cleavage stood at 0.03. As for GGCAGAGCUCAACACAGGGUGGCAAAGUGGCUGUCGCUAGAUUGCC [C18G G35C C42U], the figure is 0.08; as for GGAAGAGCUCAUCACAGCGUGGCAAAGUGGCAGUGGCGAGACUGCC [C3A A12U U32A U38G], 0.05; as for GGUAGAGCUCACCACAGCGUGGCAUAGUGGCUGUGACUAGACUGCC [C3U A12C A25U G36A], 0.27. To GGCAGAGAUCGACACAGGGUCGUUACGUGACUGUGGCUAGACUGCC [C8A A11G C18G G21C C23U A24U A26C G30A] belongs 0.02; to GGCAGAGCUCAACACGGCUUGGCAAAGUGGCUGUGGCUAGACGGCC [A16G G19U U43G], 0.21. As for GUCAGAGCUCAACACAGCGUGGCAAGGUGGCUGUAGCUAGACUGCC [G2U A26G G35A], the self-cleavage worked out at 0.06. As for GGCAGAGCUCAACCCAGCGUUGCAAGGUGGCUGUGGCUAGACUGCC [A14C G21U A26G], the figure is 0.01; as for GGCAGAGCGCAACACAGCGUGGCAAAGUGGCUGUGGCAAGACUGAC [U9G U38A C45A], 0.08. To GGCAGAGCUCAACACAGCGUGGCAAAGUGCCUGUGGCUAGAUGGCC [G30C C42U U43G] belongs 0.03; to GGCAGAGCUCUACACAGUGUGGCAAAGAGGCUGUGGCUAGACUGGC [A11U C18U U28A C45G], 0.12. As for GGCAGAGCUCAACACAUCGUGGCAAAGUGGCUGUGGAUAGACUGUC [G17U C37A C45U], the self-cleavage worked out at 0.

For GGCAGAUCUCAACACAGCGUGGAAAAGUGGCUGUGGCUUGAUUGCC [G7U C23A A39U C42U], the self-cleavage turned out to be 0.04.

As for GGCAGAGCUCAAGACAGCGUAGCAAAGAGACUGUUGCUAGACUGCC [C13G G21A U28A G30A G35U], the self-cleavage is 0.08. As for GGAAGAGCUCAACACAGCGUGGCUAAAUGGCUGCGGCUAGACUGCC [C3A A24U G27A U34C], the figure is 1.13; as for GGCAGAGCUCAUCACAAUGUGGCAAAGUGGCUGGGGCUAGACUGCC [A12U G17A C18U U34G], 0.01; as for UGCAGACCUCAACACAGCGUGGCAAAGUUGCUGUGGCUAGACUGCC [G1U G7C G29U], 0.08. To GGCAGAGCUCAACACAGCGGGGCAUAGUAGCUGUUGCUAGACUGCC [U20G A25U G29A G35U] belongs 0.1; to GGCAGACCUCAACACAGCGUGACAAAGUGGCUGUUGCUAGACUGCC [G7C G22A G35U], 0.09. Turning to GGGAGAGCUCAAAACAGCGUGGCAACGUCGCUGUGGCUAGACUUCC [C3G C13A A26C G29C G44U], the self-cleavage amounted to 0.11. In the case of GGCAGAGCUCAACACAGGGUGGCAAAGUGGCCAUGGCUAGACUGCC [C18G U32C G33A], the self-cleavage was 0.05. As for GGCAGAGCUCAACACCGCGUGGCAAAGUGGCAGUGGCUAGACUGCA [A16C U32A C46A], the figure is 0.03; as for GGAAGAGCACAACAUAGCGUGCCAAAGUGGAUGUGGCUAGACUGCC [C3A U9A C15U G22C C31A], 0.06; as for GGCAGAGCUCAACACAGAGUUGCAAAGUGUCUGUGGCUAGACUGCC [C18A G21U G30U], 0.42. On to GGACGAGCUCAACACAGCGUGGCAAAGUGGACGUGGCUAGACUGCC [C3A A4C C31A U32C], for which the self-cleavage came out at 0.3. In the case of GGCAGAGCUGAACACAGCGUGGCAAAGUGGCUGUGUGUAGACUGCC [C10G G36U C37G], the self-cleavage was determined as 0.01. As for GACAGAGCUCAGCACAGCGUGGCGAAGCGGCUGUGGCUAGACUGCC [G2A A12G A24G U28C], the self-cleavage amounted to 0.05.

As to GGCAGAGCUCAACAGAGCGUGGCAAAGUGGCUGUAGCUACACCGCC [C15G G35A G40C U43C], the self-cleavage came to 0.04. As for GGCUGAUCUCAACACAGCGUGGCAAAGUGGCUUUGGCUAGACUGCC [A4U G7U G33U], the figure is 0.15; as for GGCAGAGCUGAACAAAGCGUGGCAAAGUGGGUGUGGCUAGACUGCC [C10G C15A C31G], 0. To GGUACAGCUCUACACAGCGUGUCAAAGUGGCUGUGGCUAGACUGCC [C3U G5C A11U G22U] belongs 0.01. Take GGCAGAGUUCAACACAGCGUGACAAAGUGGCUGUGGCUAGACUGCU [C8U G22A C46U]: the self-cleavage was found to be 0.16. To GGCAUAGCUCAACAAAGCGUGGCAAAGUUGCUGUCGCUAGACUGCC [G5U C15A G29U G35C] belongs 0.04; to GGCAGAGCUCAACACAGCGUCGCAAAGUGGCUGUGGCUAGCCUAAC [G21C A41C G44A C45A], 0.03. As for GGCAGAGCUCAACACAGCAUGGCAAAGUGGAUGUGGCUAGAUUGCC [G19A C31A C42U], the figure is 0.06; as for GGCAGAGCUAAACACAGCUUGGCAAAGUAGCUGUGGCUAGAAUGCC [C10A G19U G29A C42A], 0.01; as for GGCAUAGCUCAACACAGCGUGGCAAAGUGGCUGUGGCUAGACAGCA [G5U U43A C46A], 0.36. To GGUAGCGCUCGACACGGCGUGGCAAAGUGGCUGUGGAUAGACUGCC [C3U A6C A11G A16G C37A] belongs 0.01. With GGCAGAGCUCAACACAGCGUGGCAAGGUGGCUGUGGCCCGACUGCC [A26G U38C A39C], the self-cleavage was 0.22.

As to GGCAGAGCUCAACACAGCGUGUCAAAGUGGCUGUCUCUAGACUGCC [G22U G35C G36U], the self-cleavage came to 0.08.

As for GGCAGAGCUCAACGCAGAGUGGCGUAGUGGCUGUGGCUAGACUGCC [A14G C18A A24G A25U], the self-cleavage was found to be 0.04. As for GGCAGAGCUCGACACGGAGUGGCAAAGUGGCUAUCGCUAGACUGCC [A11G A16G C18A G33A G35C], the figure is 0.02; as for GGCAUAGGUCAACACAGCGUGGCGAAGUGGCUGUGGCUAGACUGCA [G5U C8G A24G C46A], 0.21.
